From the supplement of paper PMC11417369 come the findings set out here.

Some of the results follow.

The subject of this assay is PfHDP1 homeodomain (GST-tagged). In words: gcPBM binding intensity (ln(normalized median fluorescence intensity)); higher = stronger DNA binding. In a few lines:
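Binding of GST-tagged P. falciparum DNA-binding domains, expressed in E. coli and used at about 25 μg on average, was carried out for 1 h in 1× PBS containing 1% milk, 0.2 mg/ml BSA, 0.5% salmon testes DNA and 0.03% Triton X-100. The target was an Agilent 4 × 180k array of primer-extended double-stranded 36-bp intergenic genomic probes plus negative controls, read with Alexa488 anti-GST antibody at 488 nm. Binding intensity is the highest Masliner-normalised natural-log median intensity across replicate spots of either probe orientation.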
As for “GCATTGGGAATATATAGTACATATATATATATATAA [XGTACX_site2967]”, the “gcPBM binding intensity (ln)” value came to 6.56.

Regarding “AAAAATATTTAAAATACACACATATATATAATATAT [CACACA_site2006]”, the “gcPBM binding intensity (ln)” value is 6.46.

With “TTGAAAATAATATGAAGTACATTATTTTTTTTTAAT [XGTACX_site4499]”, the “gcPBM binding intensity (ln)” value amounted to 6.04. In the case of “AAAACTTTCCATGTTTGTACATAAAATATAATAATT [XGTACX_site2716]”, the “gcPBM binding intensity (ln)” value worked out at 6.37. For the sequence “TTTTTTTTCTTTTTTTTTTTTTCAAAAGCTTATAAT [CACACA_negctrl_site1526]”, the “gcPBM binding intensity (ln)” value worked out at 5.8. As for “GTGTATTTGGTGCGCACACACATGCAAAAAGAAATA [CACACA_site4768]”, the figure is 9.15; as for “TGTATAATCATATATACACACACATATATATATATA [CACACA_site8674]”, 9.31; as for “TTATATAAAAAAAAATGTACATATAATTGGTAAATT [XGTACX_site5180]”, 6.49. Regarding “ATTTTTTTTTTTTTTTTTCATTTTTTTTTTTTTTTT [CACACA_negctrl_site1204]”, the “gcPBM binding intensity (ln)” value is 6.17. On to “TATATATTATATATATGTACATAATTCCATGTTTAG [XGTACX_site3943]”, for which the “gcPBM binding intensity (ln)” value worked out at 6.82. The value for “AACTCTTAAAAATAAACATGCAAATATTTACCTTCT [TGCATGCA_site986]” was 6.49; that for “CTTGAAAGATTTTATTGTACTCATAAGATACATTTC [XGTACX_site3178]” was 6.05; that for “TCATACAATATTAAATGTACATATATATATATATAT [XGTACX_site8828]” was 9.25. As for “ATATTAAAGCCTTTTTGTACATATAAATAAACATAG [XGTACX_site4667]”, the figure is 6.66; as for “TAATTTTTATTCAAGAGTACACAAAAGATAACTAAA [XGTACX_site4060]”, 6.26. With “TAGATACCTATAGAAACATGCAATTGAATATATTTC [TGCATGCA_site402]”, the “gcPBM binding intensity (ln)” value was 6.39. With “TTCTTACACGTTTGCACACTAAAATATATATATATA [CACACA_site434]”, the “gcPBM binding intensity (ln)” value stood at 10.7. For “TAAAAAAAATCATTCACACATATATGAAAAAAAAAA [CACACA_site5546]”, the “gcPBM binding intensity (ln)” value turned out to be 6.39.

In the case of “TAAATAATTCTTTTAGTACACACGAATAAGCAGATA [CACACA_site305]”, the “gcPBM binding intensity (ln)” value was 6.66. In the case of “GTTACATACATATACACACACATATATATATATATA [CACACA_site901]”, the “gcPBM binding intensity (ln)” value is 9.29.

As to “TATGTGATAACACGCACACAAATGTATTTAATTTAT [CACACA_site5435]”, the “gcPBM binding intensity (ln)” value amounted to 6.8. “AAAAAATGAAAATATTCCAAAATAGAGGGAAATGTA [GTGCAC_negctrl_site572]”: the “gcPBM binding intensity (ln)” value worked out at 6.5. The value for “CACAAAAATGTAATCACACATATATATATATATATA [CACACA_site5818]” was 9.36. Regarding “CTTTTTTAAAATATTTAACACACAATTTTAATGCAT [CACACA_site9303]”, the “gcPBM binding intensity (ln)” value worked out at 6.43. As for “AAAATTAGGAGACATGCATGTAACGATAAATATAAC [TGCATGCA_site148]”, the figure is 7.67; as for “TTATATTTATATATTTGTACGTATGTATATAATTCA [XGTACX_site2993]”, 6.14; as for “ATTCTAATAATATATACACACACATATATATTTATA [CACACA_site8629]”, 6.74.

“GGTGGCTAAATTACAACACACGACGGAATATTATAT [CACACA_site4114]”: the “gcPBM binding intensity (ln)” value worked out at 6.66.

For the sequence “AATATATGGTTTCATTATATTAAATTCAATTTAATG [CACACA_negctrl_site675]”, the “gcPBM binding intensity (ln)” value was determined as 5.99. For “ACCGTGGGAAGACACACACACACACCCACATATATA [CACACA_site333]”, the “gcPBM binding intensity (ln)” value stood at 6.55.

Turning to “TTTTATTCATTGAGCACACAAAATAAATTATCAAAA [CACACA_site3279]”, the “gcPBM binding intensity (ln)” value is 6.88. The value for “TGATTTATCTATATTTTATAAGTTATTTATTTTTTT [CACACA_negctrl_site1603]” was 5.8.

Consider “AGTATATAATAATTTACACACAAAAAAATATCAGGA [CACACA_site3517]”, for which the “gcPBM binding intensity (ln)” value stood at 6.7. For the sequence “ATATAAATATTTATTAGTACACATTAGTGTAGTTTT [XGTACX_site4493]”, the “gcPBM binding intensity (ln)” value is 6.49. On to “CTATATTATTTTTCTTGTACGTAGGAAATATAGCTA [XGTACX_site6176]”, for which the “gcPBM binding intensity (ln)” value came to 6.45. With “GAAAATTATATGTGTTGTACACTTGCAACAACTATT [XGTACX_site3637]”, the “gcPBM binding intensity (ln)” value came out at 7.29. On to “AAAATATATATTAACACACACACAAAAAAAAAAAAA [CACACA_site1325]”, for which the “gcPBM binding intensity (ln)” value came out at 6.34. As to “AGATATAAGAAAAGCACACACACACCCAAAAAAAAA [CACACA_site2826]”, the “gcPBM binding intensity (ln)” value stood at 6.89.

As to “TTTTATAATGTTGTAGTGCAAAATACGTATATTTAT [GTGCAC_site9826]”, the “gcPBM binding intensity (ln)” value came to 9.65.

Turning to “AATAAATATATGTACACACACAAATATATACATATC [CACACA_site1903]”, the “gcPBM binding intensity (ln)” value came out at 6.55.

On to “TGTGTATATAAATAATGTACATATATATTTTTTTAT [XGTACX_site7341]”, for which the “gcPBM binding intensity (ln)” value turned out to be 6.42.

Regarding “GTAAAAAAAAAAAAAAGTACATTATACATATATTTA [XGTACX_site5447]”, the “gcPBM binding intensity (ln)” value turned out to be 5.9. “AAAGTATAAATAAATACACACATATATATATATATA [CACACA_site2892]”: the “gcPBM binding intensity (ln)” value is 9.23. Take “TGGAGGATAGTTCACAGTACCCAGTAACTCTACGGA [XGTACX_site4930]”: the “gcPBM binding intensity (ln)” value stood at 6.22. Turning to “AACCATAACTCATATGCACACATAAATATTACATAT [CACACA_site9273]”, the “gcPBM binding intensity (ln)” value amounted to 9.77.

For the sequence “TACATTCGGAGTAAAAAAAAATTTATACAATTACTT [XGTACX_negctrl_site29]”, the “gcPBM binding intensity (ln)” value is 6.1. With “TCTTGAAAAAGAATCAATCGGTCGACAAAAAAAAAA [CACACA_negctrl_site1099]”, the “gcPBM binding intensity (ln)” value worked out at 6.42. For the sequence “AAAAAACACTTAAGGTGTACCTTTTAATATAAGTAT [XGTACX_site2397]”, the “gcPBM binding intensity (ln)” value was determined as 6.34. As for “GACAAATAATAAAAGGTGCATTATACTTAACAAAAA [GTGCAC_site9624]”, the figure is 9.69; as for “ATATTCTTGTTTAATACACACTGTAGTATTATAGAT [CACACA_site6341]”, 7.02.

With “TTTTTTAATATTTATTAATTAAACTTTGTTTTTGTT [XGTACX_negctrl_site454]”, the “gcPBM binding intensity (ln)” value amounted to 5.88. As for “AAAAATGTATGTATGGTGCAGTATTCATATCATTTT [GTGCAC_site9458]”, the figure is 7.53.

As for “AAAATGAACAAACACACACACATATATATATATATA [CACACA_site2403]”, the “gcPBM binding intensity (ln)” value was 9.15. Consider “TTATTGTGTAAGATGATTTTCTTCGTCACTTTGAAA [CACACA_negctrl_site1814]”, for which the “gcPBM binding intensity (ln)” value worked out at 5.77. As to “AATAAAAAAGGAAACAAATTAATATATATATATATA [CACACA_negctrl_site467]”, the “gcPBM binding intensity (ln)” value was 9.19. As for “TATATTTGGAAAACATGTACATATAACAATATGTAA [XGTACX_site324]”, the figure is 6.4.
